68 compounds from PubChem BioAssay AID1347073 (National Center for Advancing Translational Sciences (NCATS), 2019) can be followed below.

Structures are written as SMILES. Among all 45,000 compounds or so, about 200 (0.44%) were called active. Not shown: some 7% with an inconclusive outcome. The call rests on the fitted dose curve; in most records, active means well fitted activation curve with a large enough effect; inconclusive means small, poorly fitted or top-dose-only effect; inactive means no such curve, though single readings can be large or run the other way. This is one part of the list.

This experiment can be described thus: qHTS of TDP-43 Inhibitors: NCGC Sytravon Library Screen. Further: 0% is about no effect; nearly all actives have a fitted effect of over 55% in size. Particulars: yeast TDP-43 toxicity rescue, BacTiter-Glo growth, 24 h; series mostly up to 46.1 µM; growth rescue (activation): at the top concentration. In a few lines:
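TDP-43-expressing yeast, pregrown in raffinose, seeded at OD600 0.02 in galactose medium with compound for 24 hr at 30 deg C. Growth read by BacTiter-Glo luminescence, so rescue of toxicity appears as activation.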
For orientation: qHTS replaces the single test concentration by a dilution series.
In the case of `COc1ccc(N/C=C/c2nc(SC)nnc2C)cc1`, the “growth rescue (activation)” value was inactive: 2.66%.
Turning to `Cc1ccc(NC(=O)C2CCC(N3C(=O)C4CCCCC4C3=O)CC2)cc1` (stereo not drawn), the “growth rescue (activation)” value is inactive: 4.93%.
Take `CC1(C)Cc2c(c(-c3ccco3)[nH]c(=O)c2C#N)CS1`: the “growth rescue (activation)” value was inactive: 20.7%.
Then `Cc1c(C(=O)NCCSCc2ccco2)cccc1[N+](=O)[O-]`, with inactive: 18.8%; and `CC(C)OC(=O)/C(C#N)=C/c1cn(C)c2ccccc12`, with inactive: 17.3%; and `CCOc1cc(NC(=O)C2CC2)c(OCC)cc1NC(=O)CCn1nnc2ccccc21`, with inactive: 4.99%.
As to `CCN(C(=O)CSc1cc(C)c2ccccc2n1)c1c(N)n(Cc2ccccc2)c(=O)[nH]c1=O`, the “growth rescue (activation)” value is inactive: 8.11%.
For `Cc1cc(NC(=O)c2cccc(S(=O)(=O)N3CCCCC3)c2)no1`, the “growth rescue (activation)” value is inactive: 9.25%.
Then `O=C(CNC(=O)C1CCCCC1)OCc1cc(=O)oc2ccc3ccccc3c12`, with inactive: 9.72%.
For the compound `Cc1cc(NC(=O)CSc2nnnn2-c2ccc(C(C)C)cc2)no1`, the “growth rescue (activation)” value was inactive: 13.8%.
In the case of `CCCn1nnnc1SCC(=O)NC1CCCC1`, the “growth rescue (activation)” value is inactive: 14.2%.
In the case of `O=C(O)CSc1ncnc2c1oc1ccccc12`, the “growth rescue (activation)” value is inactive: -9.84%.
As to `CC(=O)c1c(C)[nH]c(C(=O)Nc2nc(-c3ccccc3)c(C)s2)c1C`, the “growth rescue (activation)” value is inactive: -6.05%.
With `CCCS(=O)(=O)NC(=O)C1(C)CCCN(C(=O)c2ccc(C(F)(F)F)nc2C)C1` (stereo not drawn) the figure was inactive: -2.55%.
Consider `CC(C)=CC(=O)N1CCC(N2CCC(C(=O)NCC3CCCO3)CC2)CC1` (stereo not drawn), for which the “growth rescue (activation)” value was inactive: 0.268%.
Consider `O=C1NCCN(Cc2cccc(Oc3ccccc3)c2)C1CC(=O)N1CCCO1` (stereo not drawn), for which the “growth rescue (activation)” value is inactive: 7.9%.
Regarding `COc1ccc(NC(=S)NC(=NS(=O)(=O)c2ccc(Cl)cc2)c2ccccc2)cc1`, the “growth rescue (activation)” value was inactive: 4.94%.
In the case of `O=C1c2cccc3cc([N+](=O)[O-])cc(c23)C(=O)N1/N=C/c1ccc(O)cc1O`, the “growth rescue (activation)” value is inactive: 18.1%.
On to `O=C(Nc1ccc(F)cc1)C1(S(=O)(=O)c2ccc(Cl)cc2)CC1`, for which the “growth rescue (activation)” value was inactive: 12.9%.
`O=C(c1cccc(C(F)(F)F)c1)C1CCCN(C(=O)CN2CCCC2=O)C1` (stereo not drawn): the “growth rescue (activation)” value was inactive: 4.32%.
With `Cc1cnn(Cc2cccnc2)c1N`, the “growth rescue (activation)” value is inactive: 5.86%.
Then `CCCCNC(=O)COC(=O)c1ccc(Cl)c(S(N)(=O)=O)c1`, with inactive: -15.3%; and `O=C(N/N=C/c1cc(Br)c(Br)o1)c1cccnc1`, with inactive: 1.74%; and `NS(=O)(=O)c1ccc(N/N=C/c2cn(-c3ccccc3)nc2-c2cccs2)cc1`, with inactive: -32.7%.
Then `COC(=O)C(C)Sc1nc2c(c(=O)[nH]c(=O)n2C)n1CCCc1ccccc1` (stereo not drawn), with inactive: 13%; and `COc1ccc(NS(=O)(=O)c2cc(NC(=O)Cc3cccs3)ccc2C)cc1`, with inactive: 5.74%.
As to `CC(C)Nc1ncnc2c1ncn2[C@H]1CN(Cc2ccc(-c3ccccc3)cc2)C[C@@H](CO)O1`, the “growth rescue (activation)” value is inactive: 20.6%.
With `Cc1cc2c(o1)CC(C)(C)CC2=O`, the “growth rescue (activation)” value was inactive: 6.8%.
Then `CC1(CCc2ccccc2)NC(=O)N(CC(=O)Nc2ccccc2)C1=O` (stereo not drawn), with inactive: 9.51%; and `Cc1ccnc(NC(=O)c2sc3ccccc3c2Cl)c1`, with inactive: 5.44%; and `CCc1ccc(CN(C)C(C)C(=O)NCc2ccccc2)cc1` (stereo not drawn), with inactive: 0.392%.
Consider `CCN(CC)C(=O)Cn1cnc2sc(C(=O)N3CCN(Cc4ccc5c(c4)OCO5)CC3)c(C)c2c1=O`, for which the “growth rescue (activation)” value is inactive: -25%.
For `COc1ccccc1NC(=O)C1CCN(C(=O)c2ccco2)CC1`, the “growth rescue (activation)” value was inactive: 15.5%.
Take `Cc1cc(C(=O)Oc2cccnc2)ccc1[N+](=O)[O-]`: the “growth rescue (activation)” value is inactive: 1.34%.
Turning to `COc1ccccc1OCCCOc1cccc(/C=C2\SC(=O)NC2=O)c1`, the “growth rescue (activation)” value is inactive: 4.86%.
With `O=C1CN(S(=O)(=O)c2cccc(Cl)c2Cl)c2ccccc2N1` the figure was inactive: -15.5%; with `COc1cc(CCC(=O)OCC(=O)Nc2c(Cl)cccc2Cl)cc(OC)c1OC`, inactive: -0.975%; with `O=[N+]([O-])c1cc(Br)c(O)c(/C=N/Nc2nc3ccccc3s2)c1`, inactive: 9.45%.
Regarding `CC1(Oc2ccccc2-c2ccno2)CCN(Cc2csc3ccccc23)C1` (stereo not drawn), the “growth rescue (activation)” value is inactive: 2.49%.
With `CC1(Cc2c(Cl)cccc2Cl)C(=O)Nc2cc(-c3ccccc3Cl)ccc21` (stereo not drawn) the figure was inactive: -0.556%.
Turning to `CN(c1ncnc(N)c1[N+](=O)[O-])C1CCS(=O)(=O)C1` (stereo not drawn), the “growth rescue (activation)” value was inactive: 9.1%.
On to `O=C(COC(=O)c1cccnc1Cl)NC1CCCCCC1`, for which the “growth rescue (activation)” value was inactive: 3.07%.
Take `COc1ccc2[nH]c(=O)c(CN(Cc3ccc(C)cc3)Cc3nnnn3CC3CCCO3)cc2c1` (stereo not drawn): the “growth rescue (activation)” value is inactive: 2.05%.
With `Cc1nc2ccccn2c1C(=O)NN=C1C2CC3CC(C2)CC1C3` the figure was inactive: 18.6%; with `CC(Sc1ccccc1)C(=O)Nc1ccccc1C(=O)N1CCOCC1` (stereo not drawn), inactive: -26.6%; with `O=C(Nc1ncc2c(n1)CC(c1ccco1)CC2=O)c1ccco1` (stereo not drawn), inactive: 9.91%.
In the case of `COc1ccc2cc(-c3cc(C(=O)OCC(=O)NC4CCS(=O)(=O)C4)c4ccccc4n3)ccc2c1` (stereo not drawn), the “growth rescue (activation)” value was inactive: 10.8%.
On to `O=C(CSC1=NCCS1)Nc1ccc(F)cc1`, for which the “growth rescue (activation)” value is inactive: 10.1%.
Turning to `CCOc1ccc(C(=O)N[C@H](C(=O)NNC(=O)c2cccs2)C(C)C)cc1`, the “growth rescue (activation)” value was inactive: 5.15%.
As for `CC(OC(=O)CN1C(=O)c2ccccc2C1=O)C(=O)NC1CCCC1` (stereo not drawn), the “growth rescue (activation)” value was inactive: 9.51%.
In the case of `CC(=O)Nc1ccc(NC(=S)Nc2ccc(Br)cc2)cc1`, the “growth rescue (activation)” value was inactive: 19.4%.
With `CC(CCc1ccccc1)NC(=O)C(=O)NCCc1ccccc1` (stereo not drawn) the figure was inactive: 15.3%.
With `Cc1cc(N=Cc2c(O)n(-c3cccc(C(F)(F)F)c3)c(=O)c3ccccc23)no1`, the “growth rescue (activation)” value was inactive: 6.05%.
For the compound `CC(C)(C)NC(=S)NCCc1ccccc1`, the “growth rescue (activation)” value is inactive: 21.4%.
For `COc1ccc(NS(=O)(=O)c2cc(NC(=O)/C=C/c3cc(OC)c(OC)c(OC)c3)ccc2N2CCCCC2)cc1`, the “growth rescue (activation)” value is inactive: -15.5%.
On to `Cn1cc(-c2ccc(C(=O)Nc3cccc(Oc4ccccc4)c3)c3occc23)cn1`, for which the “growth rescue (activation)” value was inactive: 8.89%.
On to `O=C(c1cc(-c2ccc3c(c2)OCO3)on1)N1CCCCC1`, for which the “growth rescue (activation)” value is inactive: 21%.
With `CCc1nc2ccc(C(=O)NCC3CCCCC3)cn2c1N(CCC(C)C)CCN(C)C`, the “growth rescue (activation)” value was inactive: 8.86%.
Consider `CCCOP(=O)(c1ccc(N(C)C)cc1)C(Nc1ccccc1)c1ccc(N(C)C)cc1` (stereo not drawn), for which the “growth rescue (activation)” value is inactive: 25.2%.
Take `O=C(CSc1cccc[n+]1[O-])Nc1ccccc1C(F)(F)F`: the “growth rescue (activation)” value was inactive: -23.2%.
With `CCCNC(=O)C1(C)CCN(C(=O)c2cccc(Cl)c2)C1` (stereo not drawn) the figure was inactive: 0.28%; with `COC(=O)c1c(C(=O)OC)c(-c2cccc(C)c2)n2c1CS(=O)(=O)C2`, inactive: 7.85%.
Regarding `COc1ccc2cc(C(C)C(=O)NC3CCC(O)CC3)ccc2c1` (stereo not drawn), the “growth rescue (activation)” value was inactive: 1.78%.
For the compound `COCCN(C(=S)Nc1ccccc1OC)C1CCN(C(C)=O)CC1`, the “growth rescue (activation)” value is inactive: 5.64%.
Regarding `CCC(C)[C@H](NC(=O)NCc1ccc(S(N)(=O)=O)cc1)C(=O)OC` (stereo partly drawn), the “growth rescue (activation)” value was inactive: 6.89%.
With `O=C(CN1CCN(c2ccccc2)CC1)N1N=CCC1c1ccccc1` (stereo not drawn), the “growth rescue (activation)” value was inactive: -4.02%.
With `COc1ccc(Br)cc1CN(C)CC(=O)Nc1c(Cl)cccc1Cl`, the “growth rescue (activation)” value was inactive: -4.9%.
Consider `O=C(CN1C(=O)NC2(CCc3ccccc32)C1=O)Nc1cccc(Cl)c1` (stereo not drawn), for which the “growth rescue (activation)” value is inactive: 10.5%.
